Measured values as given in patent US12448369B2 (Edgewise Therapeutics, Inc., priority 2023, dated 2025).
At least one structure is not confirmed: it was looked up by name or label, or the drawing left a doubt.

Columns and labels:
[1] = tested on: Rabbit Psoas myofibrils (skeletal myosin ATPase); test: Myofibril ATPase assay, rabbit psoas (skeletal) myofibrils; assay type: biochemical
Protocol: (§1) Example 1. Myofibril ATPase Assay
(§2) Myofibril ATPase assays are known in the art to be useful in evaluating small molecules for the treatment of HCM and other cardiac indications. Myosin ATPase activity is assessed by using a coupled reaction system, in which ADP generated by the myosin ATPase function is coupled to the disappearance of NADH through the pyruvate kinase/lactate dehydrogenase (PK-LDH) system. ATPase activity produces ADP, which is used as a substrate for PK to produce pyruvate and regenerate ATP. The pyruvate is then used as a substrate by LDH to oxidize NADH to NAD+. The rate of the reaction is monitored through the time-dependent disappearance of NADH using absorbance at 340 nm, which, when the couple system is in stoichiometric excess, is directly correlated to the ATPase activity of the myosin. Inhibition of ATPase activity by the assayed compounds is indicated by a reduced rate of NADH loss, relative to vehicle-treated controls, over the experimental time window. Activation of ATPase activity by the assayed compounds is indicated by an increased rate of NADH loss, relative to vehicle-treated controls, over the experimental time window. Rabbit Psoas, Porcine atria, and Porcine ventricle are the primary sources of myofibril material.
(§3) Materials: The following stock solutions and reagents were used in the Myofibril ATPase Assay:
(§4) Stock Solutions of pCa buffer. Combine PIPES, CaCl2, and EGTA solutions with water. Adjust pH to 7.0 and bring final volume to 100 mL.
(§5) Buffer A & Buffer B. Prepare buffers A and B according to the table below.
(§6) Myofibril ATPase Assay Procedure: BSA, ATP, NADH, PEP, and DTT solutions were thawed at room temperature, then transferred to ice. Pellet-frozen myofibrils were transferred with approximately twice the required volume into a sufficiently large tube and capped. Myofibrils were thawed by rolling in a water bath for approximately 15 min at room temperature and cooled on ice. Buffers A and B were prepared by adjusting volumes as necessary for required number of wells and stored on ice. 0.5 μL of the compounds to be assayed were added into wells. 25 μL of Buffer A was dispensed into the wells, followed by 25 μL of Buffer B. The wells were measured for absorbance at 340 nm, using a kinetic protocol in which the wells are read every 1.5-2 min for 75 min. Assay data analysis was performed using a python script that filtered the raw data to retain those points falling between a starting and ending time and between a maximum and minimum absorbance, then used the filtered time-domain 340 nm absorbance data in each well to calculate a slope via linear regression analysis in units of mAU/min. Compound slopes were normalized between 100% and 0% activity, where 100% represented the slope of wells containing only compound vehicle, and fit to a 4-parameter logistic model. In addition to the fit parameters, the EC25% values were calculated, relative to the 100% normalized value. Additionally, the Y125 values were calculated for compounds that increased myosin ATP-ase activity. Fit parameters, calculated effective concentrations, filtered raw data, and calculated slopes were exported, in addition to compound-specific graphs of normalized ATPase activity versus concentration in μM. Each value reported in Table 5, Table 6, and Table 7 is either a Y75 value or a Y125 value. Values without a double cross sign, ‡, are Y75 values, which reflect the concentration required to reduce myosin ATP-ase activity by 25% (e.g., Y-axis activity value is 75% of initial value), relative to myosin ATP-ase activity in the absence of exogenous compound.
Skeletal Myofibril Isolation:
(§7) Myofibrils from various animals and tissue types were acquired from a variety of sources: rabbit psoas muscle was purchased from Pel-Freez Biologicals (Rogers, AR) and porcine cardiac muscle was purchased from Exemplar Genetics. All myofibrils were prepared using a method based upon those described in Herrmann et al. (1993) and summarized here. […]

[2] = tested on: Porcine atria myofibrils (atrial myosin ATPase); test: Myofibril ATPase assay, porcine atria myofibrils; assay type: biochemical
Protocol: as §1, §2, §3, §4, §5, §6, §7

[3] = target: T1, Porcine ventricle myofibrils (ventricular myosin ATPase) (Sus scrofa, UniProt P79293); test: Myofibril ATPase assay, porcine ventricle myofibrils; assay type: biochemical, porcine (Yucatan minipigs)
T1 construct: Myofibrils from porcine cardiac muscle was isolated from the left ventricle of Yucatan minipigs; tissue Exemplar Genetics; host or cells: left ventricle of Yucatan minipigs, myofibrils prepared in house
T1 sequence (P79293 whole entry): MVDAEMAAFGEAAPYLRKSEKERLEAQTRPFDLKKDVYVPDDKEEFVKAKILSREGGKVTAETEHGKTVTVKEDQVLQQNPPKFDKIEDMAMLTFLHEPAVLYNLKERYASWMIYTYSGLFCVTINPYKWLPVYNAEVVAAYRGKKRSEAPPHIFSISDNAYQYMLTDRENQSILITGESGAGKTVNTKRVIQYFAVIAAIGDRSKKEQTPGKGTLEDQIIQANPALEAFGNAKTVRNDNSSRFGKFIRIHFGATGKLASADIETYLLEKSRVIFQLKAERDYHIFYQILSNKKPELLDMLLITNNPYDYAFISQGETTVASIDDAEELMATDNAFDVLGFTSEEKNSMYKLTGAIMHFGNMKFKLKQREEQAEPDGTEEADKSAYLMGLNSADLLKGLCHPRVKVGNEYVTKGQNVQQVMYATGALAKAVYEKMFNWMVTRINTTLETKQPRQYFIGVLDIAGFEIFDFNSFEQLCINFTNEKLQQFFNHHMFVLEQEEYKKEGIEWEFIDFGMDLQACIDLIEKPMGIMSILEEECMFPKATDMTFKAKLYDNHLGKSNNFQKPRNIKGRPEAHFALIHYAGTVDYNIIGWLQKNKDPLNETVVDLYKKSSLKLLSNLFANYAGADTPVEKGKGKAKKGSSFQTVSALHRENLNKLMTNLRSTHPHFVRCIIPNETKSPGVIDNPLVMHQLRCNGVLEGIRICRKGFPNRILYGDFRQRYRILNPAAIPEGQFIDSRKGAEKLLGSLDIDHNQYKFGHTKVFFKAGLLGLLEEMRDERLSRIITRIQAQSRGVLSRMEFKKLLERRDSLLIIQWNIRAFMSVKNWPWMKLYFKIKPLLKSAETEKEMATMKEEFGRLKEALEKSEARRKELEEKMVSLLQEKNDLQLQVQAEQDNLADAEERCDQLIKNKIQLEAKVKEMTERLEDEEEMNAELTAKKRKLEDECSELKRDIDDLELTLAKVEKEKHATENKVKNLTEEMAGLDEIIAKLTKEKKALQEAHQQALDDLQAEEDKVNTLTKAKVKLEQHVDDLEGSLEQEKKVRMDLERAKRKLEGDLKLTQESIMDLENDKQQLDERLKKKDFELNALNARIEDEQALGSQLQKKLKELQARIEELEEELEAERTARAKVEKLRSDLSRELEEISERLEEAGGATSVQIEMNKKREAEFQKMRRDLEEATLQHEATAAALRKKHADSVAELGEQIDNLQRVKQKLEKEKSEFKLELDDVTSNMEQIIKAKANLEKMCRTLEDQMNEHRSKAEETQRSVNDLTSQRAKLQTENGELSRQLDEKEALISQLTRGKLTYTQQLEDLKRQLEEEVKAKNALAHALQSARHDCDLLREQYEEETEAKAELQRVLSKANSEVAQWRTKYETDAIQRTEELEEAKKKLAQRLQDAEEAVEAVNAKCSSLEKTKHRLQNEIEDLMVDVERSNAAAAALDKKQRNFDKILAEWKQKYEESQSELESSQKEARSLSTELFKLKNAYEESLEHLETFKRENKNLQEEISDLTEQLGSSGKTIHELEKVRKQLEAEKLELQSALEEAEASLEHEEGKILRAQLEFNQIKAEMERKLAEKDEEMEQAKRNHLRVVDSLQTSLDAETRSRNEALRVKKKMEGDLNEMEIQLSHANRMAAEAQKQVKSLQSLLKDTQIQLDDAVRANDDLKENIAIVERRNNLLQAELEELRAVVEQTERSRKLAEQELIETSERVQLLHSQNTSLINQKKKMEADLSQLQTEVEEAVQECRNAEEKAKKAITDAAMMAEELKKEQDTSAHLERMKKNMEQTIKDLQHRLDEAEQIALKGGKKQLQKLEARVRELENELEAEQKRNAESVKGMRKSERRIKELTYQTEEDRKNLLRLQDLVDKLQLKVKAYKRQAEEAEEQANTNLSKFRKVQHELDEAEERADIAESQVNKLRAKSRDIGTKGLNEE
Protocol: as §1, §2, §3, §4, §5, §6
Cardiac Myofibril Isolation:
Myofibrils from porcine cardiac muscle was isolated from the left ventricle of Yucatan minipigs. Myofibrils were prepared using a method based upon those described in Herrmann et al. (1993) and summarized here. […]

[4] = Y75 value (no ‡ mark), rabbit psoas myofibrils
[5] = Y75 value (no ‡ mark), porcine atria myofibrils
[6] = Y75 value (no ‡ mark), porcine ventricle myofibrils
[7] = rabbit psoas myofibrils, Y75 value
[8] = porcine atria myofibrils, Y75 value (75% activity relative to no compound)
[9] = porcine ventricle myofibrils, Y75 value

Question: Which “Skeletal EC25” value [1, 4] does the source give for `Cc1c(CC(=O)N[C@H](C)c2ccc(C#N)nn2)c(=O)[nH]c2cccc(C(F)(F)F)c12` [compound 1064] here?
Answer: The value was 9090 nM.

Question: And the “Atrial EC25” value [2, 5]?
Answer: Its value is 2170 nM.

Question: What about the “Ventricular EC25” value [3, 6] of the same molecule?
Answer: Its value is 14070 nM.

Question: What does the source list for `Cc1c(CC(=O)N[C@H](C)c2cc(C#N)c(F)s2)c(=O)[nH]c2ccc(F)cc12` (single isomer, unassigned) [compound 4004]?
Answer: Skeletal EC25 ([1]; Y75 value: concentration required to reduce myosin ATP-ase activity by 25%, Rabbit Psoas Prep pCa 25 GEOM_MEAN): 160 nM; Atrial EC25 ([2]; Y75 value: concentration required to reduce myosin ATP-ase activity by 25%, Porcine Atria Prep pCa 25 GEOM_MEAN): 410 nM; Ventricular EC25 ([3]; Y75 value: concentration required to reduce myosin ATP-ase activity by 25%, Porcine Ventricle Prep pCa 25 GEOM_MEAN): 310 nM

Question: How did the “Skeletal EC25” value [1, 7] turn out when `Cc1c(CC(=O)N[C@@H](C)c2ccc(F)cc2F)c(=O)[nH]c2ccnc(OC(C)C)c12` [compound 374] was run?
Answer: Its value is 20 nM.

Question: What about the “Atrial EC25” value [2, 8] of the same molecule?
Answer: Its value is 90 nM.

Question: What about the “Ventricular EC25” value [3, 9] of the same molecule?
Answer: Its value is 370 nM.

Question: Which results are given for `C[C@H](NC(=O)[C@H](C)c1cc2cc(F)ccc2[nH]c1=O)c1ccc(F)cc1F` (single isomer, unassigned) [compound 122]?
Answer: Skeletal EC25 [1, 4]: 1260 nM; Atrial EC25 [2, 5]: 100000 nM; Ventricular EC25 [3, 6]: 100000 nM

Question: How did the “Skeletal EC25” value [1, 4] turn out when `Cc1nc(C#N)ncc1[C@@H](C)NC(=O)Cc1cc2c(F)c(F)ccc2[nH]c1=O` (single isomer, unassigned) [compound 15] was run?
Answer: The value was 290 nM.

Question: What about the “Atrial EC25” value [2, 5] of the same molecule?
Answer: The value was 100 nM.

Question: What about the “Ventricular EC25” value [3, 6] of the same molecule?
Answer: Its value is 130 nM.

Question: How did the “Skeletal EC25” value [1, 7] turn out when `Cc1c(CC(=O)N[C@H]2COc3cc(F)cc(F)c32)c(=O)[nH]c2ccnc(C(F)(F)F)c12` (single isomer, unassigned) [compound 185] was run?
Answer: The value was 20 nM.

Question: And the “Atrial EC25” value [2, 8]?
Answer: The value was 80 nM.

Question: And the “Ventricular EC25” value [3, 9]?
Answer: The value was 80 nM.

Question: Which “Skeletal EC25” value [1, 7] does the source give for `Cc1nccc2[nH]c(=O)c(CC(=O)N[C@H](C)c3ccc(C#N)nn3)c(C)c12` [compound 484] here?
Answer: The value was 27880 nM.

Question: What about the “Atrial EC25” value [2, 8] of the same molecule?
Answer: Its value is 2090 nM.

Question: And the “Ventricular EC25” value [3, 9]?
Answer: The value was 100000 nM.

Question: How did the “Skeletal EC25” value [1, 4] turn out when `Cc1c(C(F)(F)C(=O)N[C@H](C)c2nccc(C#N)n2)c(=O)[nH]c2ccc(F)c(F)c12` (single isomer, unassigned) [compound 2517] was run?
Answer: The value was 2860 nM.

Question: What about the “Atrial EC25” value [2, 5] of the same molecule?
Answer: The value was 3470 nM.

Question: What about the “Ventricular EC25” value [3, 6] of the same molecule?
Answer: The value was 24940 nM.

Question: Which “Skeletal EC25” value [1, 4] does the source give for `C[C@H](NC(=O)Cc1cc2c(C(F)(F)F)cccc2[nH]c1=O)c1ncc(C#N)cn1` (single isomer, unassigned) [compound 2012] here?
Answer: Its value is 100000 nM.

Question: And the “Atrial EC25” value [2, 5]?
Answer: The value was 100000 nM.

Question: And the “Ventricular EC25” value [3, 6]?
Answer: The value was 100000 nM.

Question: What does the source list for `Cc1c(CC(=O)N[C@@H]2COc3cc(C#N)cc(F)c32)c(=O)[nH]c2ccc(F)c(F)c12` (single isomer, unassigned) [compound 61]?
Answer: Skeletal EC25 [1, 4]: 10 nM; Atrial EC25 [2, 5]: 50 nM; Ventricular EC25 [3, 6]: 80 nM

Question: With `Cc1c(CC(=O)N[C@@H](C)c2ccc(C#N)nn2)c(=O)[nH]c2cccc(C(F)(F)F)c12` [compound 1065] as the molecule, how does the “Skeletal EC25” value [1, 4] read?
Answer: The value was 1000 nM.

Question: And the “Atrial EC25” value [2, 5]?
Answer: The value was 510 nM.

Question: What about the “Ventricular EC25” value [3, 6] of the same molecule?
Answer: Its value is 800 nM.

Question: For `Cc1c(CC(=O)N[C@@H](C)c2ccc(F)cc2F)c(=O)[nH]c2ccnc(O)c12` [compound 244], which “Skeletal EC25” value [1, 7] is on record?
Answer: The value was 100000 nM.

Question: What about the “Atrial EC25” value [2, 8] of the same molecule?
Answer: The value was 100000 nM.

Question: And the “Ventricular EC25” value [3, 9]?
Answer: The value was 100000 nM.

Question: What does the source list for `Cc1c(CC(=O)N[C@@H](C)c2ncc(C#N)cn2)c(=O)[nH]c2cccc(C#N)c12` (single isomer, unassigned) [compound 2070]?
Answer: Skeletal EC25 [1, 4]: 50 nM; Atrial EC25 [2, 5]: 300 nM; Ventricular EC25 [3, 6]: 2110 nM

Question: Which “Skeletal EC25” value [1, 4] does the source give for `Cc1c(CC(=O)N[C@H]2COc3cc(C#N)cc(F)c32)c(=O)[nH]c2ccc(F)c(F)c12` (single isomer, unassigned) [compound 62] here?
Answer: Its value is 260 nM.

Question: What about the “Atrial EC25” value [2, 5] of the same molecule?
Answer: The value was 150 nM.

Question: And the “Ventricular EC25” value [3, 6]?
Answer: Its value is 210 nM.
